Test results: PubChem BioAssay (NCATS)
Several values for one entry are separate records, joined by “and”; a condition that tells them apart may be missing. Equal entries are not always repeated. This is one part of the list. Further columns of the screen follow, without active or inactive calls. For some assays here: Most of these compounds were active or inconclusive in the main read-out, so they are no random draw. For some assays here: Potencies come from curve fits of mixed quality, noted in brackets.

Key:
[1] = qHTS drug screen for cell cycle checkpoint inhibitors in PARPi-resistant BRCA-mutant ovarian cancer cell lines. (AID 1963452); conditions: PEO1/OlaR viability, CellTiter-Glo luminescence, 96 h
How it was run: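 PEO1, PEO4 and PEO1/OlaR ovarian cancer cells, 600 per well, exposed 96 h at 37C to a dilution series. Viability read by CellTiter-Glo luminescence, normalized to DMSO and empty wells; activity summarized as Z-AUC.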

[2] = qHTS for identification of novel therapeutic agents for treatment of microphthalmiaassociated transcription factor (MiT) renal cell carcinoma (RCC) (AID 1963991); conditions: CellTiter-Glo, 48 h; for z-score: stronger effect = lower value
How it was run: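 Three TFE3-fusion RCC cell lines (UOK109, UOK124, UOK145), 500 cells/well, were exposed to the 1912-compound MIPE 4.0 library for 48 hours at 37 C. Viability was read by CellTiter-Glo luminescence, normalised to DMSO (100%) and empty wells (0%), with 11-concentration curve fits.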

[3] = qHTS assay for small molecule antagonists of peroxisome proliferator-activated receptor gamma signaling (AID 588537); conditions: HEK293 PPARg-UAS-bla, beta-lactamase ratio, antagonist mode; measured here: W460 blue channel
How it was run: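 Step one: plate 3000 HEK293 UAS-bla cells per well in medium with 1% stripped serum and hold 6-6.5 h at 37 C. Step two: add compound and 50 nM agonist for 16 h. Step three: CCF4 loading, fluorescence read.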

[4] = qHTS assay for small molecule agonists of retinoid X receptor alpha signaling (AID 588544); conditions: HEK293T RXRa-UAS-bla, beta-lactamase reporter, 18 h; 530 nm emission
[5] = TFE3-RCC UOK109 viability, measured here: UOK109 Z-AUC
[6] = TFE3-RCC viability, measured here: UOK124 Z-AUC
[7] = TFE3-RCC viability, measured here: UOK124 cell viability
[8] = TFE3-RCC viability, measured here: UOK145 Z-AUC
[9] = TFE3-RCC viability, measured here: UOK145 cell viability
[10] = measured here: PEO1 parental viability
Tags tell the direction and shape of the fitted curve.

## Cc1ccc(-n2[nH]c(C)c(N=Nc3cccc(-c4cccc(C(=O)O)c4)c3O)c2=O)cc1C
[1]; measured here: PEO4 viability
  AC50: 0.871 µM [falling, full curve, poor fit]
[2]; [5]
  z-score: 0.498
[2]; [6]
  z-score: 0.25
[2]; [7]
  AC50: 20.9 µM [falling, partial curve]
[2]; [8]
  z-score: 0.308
[2]; [9]
  AC50: 16.6 µM [falling, partial curve]

## Cc1cc(Cl)ccc1OCCCC(=O)NO
[1]; measured here: PEO4 viability
  AC50: 19.5 µM [falling, partial curve]
[2]; [5]
  z-score: -1.15
[2]; [6]
  z-score: 0.815
[2]; [7]
  AC50: 16.6 µM [falling, partial curve]
[2]; [8]
  z-score: -0.215
[2]; [9]
  AC50: 26.4 µM [falling, single point]

## COCCNCCCn1c(C(=O)CF)c(-c2ccc(C)cc2)c2c(N)ncnc21
[1]; [10]
  AC50: 27.5 µM [falling, single point]
[2]; [5]
  z-score: -0.0374
[2]; [6]
  z-score: -0.145
[2]; [7]
  AC50: 16.6 µM [falling, partial curve]
[2]; [8]
  z-score: 0.643
[2]; [9]
  AC50: 20.9 µM [falling, partial curve, poor fit]

## NCC(=O)Nc1ccc(-n2nc(C(F)(F)F)cc2-c2ccc3c(ccc4ccccc43)c2)cc1
[1]; [10]
  AC50: 9.77 µM [falling, partial curve, poor fit]
[2]; [5]
  z-score: 0.694
[2]; [6]
  z-score: 1.84
[2]; [7]
  AC50: 26.4 µM [falling, partial curve]
[2]; [8]
  z-score: -0.0972
[2]; [9]
  AC50: 18.7 µM [falling, partial curve]

## Oc1ccc(C2CCN(c3ccnc4ccccc34)CC2)cc1O
[1]; [10]
  AC50: 4.36 µM [falling, full curve]
[2]; [5]
  z-score: -0.133
[2]; [6]
  z-score: 0.0909
[2]; [7]
  AC50: 16.6 µM [falling, partial curve]
[2]; [8]
  z-score: 0.564
[2]; [9]
  AC50: 16.6 µM [falling, partial curve, poor fit]

## CCN(CC)CCCCNc1ncc2c(n1)N(C)C(=O)N(c1c(Cl)c(OC)cc(OC)c1Cl)C2
[1]; measured here: PEO4 viability
  AC50: 24.5 µM [falling, single point]
[2]; [5]
  z-score: 0.767
[2]; [6]
  z-score: -1.13
[2]; [7]
  AC50: 16.6 µM [falling, partial curve]
[2]; [8]
  z-score: -0.0724
[2]; [9]
  AC50: 11.8 µM [falling, partial curve]

## CC(C)C(=O)Nc1ccc([N+](=O)[O-])c(C(F)(F)F)c1
[3]
  AC50: 0.0251 µM [falling, full curve, poor fit]
[4]
  max response: 15.8% and 10.5%
[1]; [10]
  AC50: 0.0692 µM [falling, full curve, poor fit]
[2]; [5]
  z-score: -0.348
[2]; [6]
  z-score: 0.0897
[2]; [7]
  AC50: 2.96 µM [falling, partial curve, poor fit]
[2]; [8]
  z-score: -0.758
[2]; [9]
  AC50: 4.18 µM [falling, full curve]
